The assay relates to NCI-H1944. Kind of assay: normalised cell viability (NPI; 0 = phenylarsine oxide control, 1 = DMSO control) (fraction of DMSO control); NCI-H1944 is a non-small cell lung cancer line; higher = more viable cells (less compound toxicity). The conditions noted are these: 6 days.
[1] abbreviates: glucocorticoid arm: hydrocortisone 2.75 uM co-treatment, compound 1 µM.
Setting [2] is: glucocorticoid arm: hydrocortisone 2.75 uM co-treatment, compound 5 µM.
[3] abbreviates: glucocorticoid arm: hydrocortisone 2.75 uM pre-treated 2 days and continued, compound 1 µM.
Where [4] appears, read: glucocorticoid arm: hydrocortisone 2.75 uM pre-treated 2 days and continued, compound 5 µM.
Setting [5] is: glucocorticoid arm: vehicle, compound 1 µM.
[6] abbreviates: glucocorticoid arm: vehicle, compound 5 µM.

The structures appear in SMILES notation. Where a name gives a salt, the structure may show the parent alone. ± gives the standard deviation of the averaged measurements. Whole data set: some 1,900 compounds, median “normalised cell viability (NPI; 0 = phenylarsine oxide control, 1 = DMSO control)” near 1, cut for the lowest 2% near 0.039. This is one part of the list.

Here are results for 24 molecules from the supplement of paper PMC8285479.
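Further: CTB read-out in 384-well plates, mean of triplicate wells, normalised per plate against 1 µM phenylarsine oxide and 0.1% DMSO, compounds added 24 h after seeding.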

With `C[N+]1(C)[C@@H]2CC(OC(=O)[C@H](CO)c3ccccc3)C[C@H]1[C@@H]1O[C@@H]12` (single isomer, unassigned; (-)) [(-)-Scopolamine methyl nitrate], the normalised cell viability under setting [1] is 1.01; the normalised cell viability under setting [2] stood at 1 ± 0.016; the normalised cell viability under setting [3] stood at 0.923 ± 0.14; the normalised cell viability under setting [4] worked out at 1.02 ± 0.01; the normalised cell viability under setting [5] was 1.002 ± 0.0072; the normalised cell viability under setting [6] was found to be 0.9997 ± 0.0091.

In the case of `NC(Cc1cc(O)c(O)cc1O)C(=O)O` (racemic) [6-Hydroxy-DL-DOPA], the normalised cell viability under setting [1] amounted to 1 ± 0.01; the normalised cell viability under setting [2] was 0.965 ± 0.015; the normalised cell viability under setting [3] came to 1 ± 0.0085; the normalised cell viability under setting [4] is 0.9733 ± 0.0081; the normalised cell viability under setting [5] is 1.001 ± 0.0081; the normalised cell viability under setting [6] is 1.007 ± 0.0058.

As for `O=c1[nH]oc2c1CCNC2` [THIP hydrochloride], the normalised cell viability reads like this: under setting [1], 0.9973 ± 0.0046; under setting [2], 1.01 ± 0.024; under setting [3], 1.03 ± 0.036; under setting [4], 0.999 ± 0.011; under setting [5], 1.003 ± 0.0058; under setting [6], 1.001 ± 0.0081.

Consider `CC[C@@H](CO)NC(=O)[C@@H]1C=C2c3cccc4c3c(cn4C)C[C@H]2N(C)C1` [Methysergide maleate], for which the normalised cell viability runs as follows: under setting [1], 1.01; under setting [2], 1.04 ± 0.032; under setting [3], 1.01 ± 0.01; under setting [4], 1.07 ± 0.067; under setting [5], 0.9937 ± 0.0045; under setting [6], 1.01 ± 0.015.

`CC(C)C1CNC(C(=O)O)C1CC(=O)O` (centres undefined) [Dihydrokainic acid]: the normalised cell viability came to 0.9947 ± 0.0055 under setting [1]; 0.973 ± 0.017 under setting [2]; 0.9907 ± 0.0057 under setting [3]; 0.971 ± 0.011 under setting [4]; 0.9793 ± 0.0035 under setting [5]; 0.9803 ± 0.006 under setting [6].

Consider `COc1cc2c(c(OC)c1OC)-c1ccc(OC)c(=O)cc1[C@@H](NC(C)=O)CC2` [Colchicine], for which the normalised cell viability under setting [1] turned out to be 0.352 ± 0.047; the normalised cell viability under setting [2] is 0.273 ± 0.012; the normalised cell viability under setting [3] worked out at 0.9493 ± 0.0045; the normalised cell viability under setting [4] amounted to 0.872 ± 0.11; the normalised cell viability under setting [5] was 0.0721 ± 0.007; the normalised cell viability under setting [6] was found to be 0.055 ± 0.0079.

In the case of `COc1ccc2c(c1)[C@@]13CCCC[C@H]1[C@@H](C2)NCC3` [3-Methoxymorphinan hydrochloride], the normalised cell viability turned out to be 1.013 ± 0.0058 under setting [1]; 0.989 ± 0.03 under setting [2]; 1.02 ± 0.015 under setting [3]; 1.06 ± 0.058 under setting [4]; 1.003 ± 0.0058 under setting [5]; 1.01 ± 0.01 under setting [6].

Consider `CCN(CC)C(=O)N[C@H]1C[C@@H]2c3cccc4[nH]cc(c34)C[C@H]2N(C)C1` [S(+)-Terguride], for which the normalised cell viability reads like this: under setting [1], 0.989 ± 0.011; under setting [2], 1.01 ± 0.02; under setting [3], 0.79 ± 0.37; under setting [4], 0.996 ± 0.016; under setting [5], 0.9953 ± 0.0015; under setting [6], 0.993 ± 0.0056.

For the molecule `CC(N)C(O)c1ccc(O)c(O)c1` (single isomer, unassigned; (-)) [(-)-alpha-Methylnorepinephrine], the normalised cell viability stood at 1.01 ± 0.012 under setting [1]; 0.971 ± 0.044 under setting [2]; 0.995 ± 0.013 under setting [3]; 0.958 ± 0.034 under setting [4]; 0.9967 ± 0.0058 under setting [5]; 0.9977 ± 0.0032 under setting [6].

As for `C/C=C(/C)C(=O)O[C@H]1C(C)=C2[C@H]([C@@H]1OC(=O)CCCCCCC)[C@@](C)(OC(C)=O)C[C@H](OC(=O)CCC)[C@@]1(O)[C@H]2OC(=O)[C@@]1(C)O` [Thapsigargin], the normalised cell viability under setting [1] amounted to 0.0778 ± 0.015; the normalised cell viability under setting [2] came to 0.0411 ± 0.016; the normalised cell viability under setting [3] came out at 0.215 ± 0.062; the normalised cell viability under setting [4] came to 0.101 ± 0.029; the normalised cell viability under setting [5] turned out to be 0.0393 ± 0.014; the normalised cell viability under setting [6] came to 0.00585 ± 0.0031.

As for `C[C@]12CC[C@@H](O)C[C@@H]1CC[C@@H]1[C@@H]2CC[C@]2(C)[C@@H](C(=O)CO)CC[C@@H]12` [3-alpha,21-Dihydroxy-5-alpha-pregnan-20-one], the normalised cell viability under setting [1] is 1.005 ± 0.0092; the normalised cell viability under setting [2] stood at 0.998 ± 0.013; the normalised cell viability under setting [3] was 1.01 ± 0.022; the normalised cell viability under setting [4] worked out at 1.05 ± 0.07; the normalised cell viability under setting [5] came to 1 ± 0.011; the normalised cell viability under setting [6] turned out to be 1.01 ± 0.015.

As to `CCCN(CCC)C1CCc2cccc(O)c2C1` (racemic) [(±)-8-Hydroxy-DPAT hydrobromide], the normalised cell viability by setting is: under setting [1], 1.02 ± 0.017; under setting [2], 1.01 ± 0.01; under setting [3], 1.01 ± 0.01; under setting [4], 1.004 ± 0.0098; under setting [5], 0.9967 ± 0.0058; under setting [6], 0.9947 ± 0.0067.

For the molecule `c1ccc2c(c1)OCC(C1=NCCN1)O2` (centres undefined) [Idazoxan hydrochloride], the normalised cell viability runs as follows: under setting [1], 1.002 ± 0.0068; under setting [2], 1.02 ± 0.029; under setting [3], 0.9917 ± 0.0057; under setting [4], 1.03 ± 0.07; under setting [5], 0.9787 ± 0.0023; under setting [6], 0.985 ± 0.013.

On to `CCCN(CCC)[C@H]1CCc2c(F)ccc(O)c2C1` [S(-)-UH-301 hydrochloride], for which the normalised cell viability reads like this: under setting [1], 0.991 ± 0.0092; under setting [2], 0.992 ± 0.025; under setting [3], 0.805 ± 0.34; under setting [4], 1 ± 0.028; under setting [5], 1 ± 0.0084; under setting [6], 0.9963 ± 0.0035.

For `CCCN1CCC[C@@H]2Cc3n[nH]cc3C[C@H]21` (racemic) [(±)-Quinpirole dihydrochloride], the normalised cell viability under setting [1] amounted to 1.013 ± 0.0058; the normalised cell viability under setting [2] amounted to 1.01 ± 0.036; the normalised cell viability under setting [3] is 0.893 ± 0.19; the normalised cell viability under setting [4] is 1.03 ± 0.01; the normalised cell viability under setting [5] came to 1.013 ± 0.0058; the normalised cell viability under setting [6] came out at 1.01 ± 0.011.

For `CCCN1CCC[C@@H]2Cc3n[nH]cc3C[C@H]21` [(-)-Quinpirole hydrochloride], the normalised cell viability is 0.982 ± 0.006 under setting [1]; 0.992 ± 0.018 under setting [2]; 0.867 ± 0.22 under setting [3]; 1.01 ± 0.016 under setting [4]; 0.985 ± 0.0087 under setting [5]; 0.9927 ± 0.0045 under setting [6].

For `Cc1nc(-c2ccc(-c3ccc(C(=O)N4CCc5cc6c(cc54)C4(CCN(C)CC4)CO6)cc3)c(C)c2)no1`, the normalised cell viability is 0.994 ± 0.0066 under setting [1]; 0.356 ± 0.53 under setting [2]; 1.02 ± 0.02 under setting [3]; 1.1 ± 0.021 under setting [4]; 0.994 ± 0.014 under setting [5]; 0.00588 ± 0.0059 under setting [6].

For `CC(C)c1cccc(C(C)C)c1O` [Propofol], the normalised cell viability is, setting by setting: under setting [1], 1.005 ± 0.0092; under setting [2], 0.973 ± 0.022; under setting [3], 0.994 ± 0.014; under setting [4], 0.972 ± 0.031; under setting [5], 1.001 ± 0.009; under setting [6], 1.002 ± 0.0074.

As for `Oc1ccc2c3c1O[C@H]1[C@@H](O)CC[C@@]4(O)[C@@H](C2)N(CC2CCC2)CC[C@]314` [Nalbuphine hydrochloride], the normalised cell viability is, setting by setting: under setting [1], 1.02 ± 0.01; under setting [2], 1.02 ± 0.032; under setting [3], 1.01 ± 0.021; under setting [4], 1.03 ± 0.053; under setting [5], 1.013 ± 0.0058; under setting [6], 1.03 ± 0.017.

Consider `O=C(O)CC[N+](=O)[O-]` [3-Nitropropionic acid], for which the normalised cell viability by setting is: under setting [1], 0.9993 ± 0.0011; under setting [2], 0.996 ± 0.026; under setting [3], 1 ± 0.013; under setting [4], 0.901 ± 0.15; under setting [5], 1.01 ± 0.01; under setting [6], 1.01 ± 0.011.

Turning to `OCc1cnc[nH]1` [4-Imidazolemethanol hydrochloride], the normalised cell viability amounted to 1.017 ± 0.0058 under setting [1]; 1 ± 0.027 under setting [2]; 1.01 ± 0.019 under setting [3]; 0.995 ± 0.031 under setting [4]; 1.017 ± 0.0058 under setting [5]; 1.01 ± 0.01 under setting [6].

Consider `CN1C[C@H](CNC(=O)OCc2ccccc2)C[C@@H]2c3cccc4c3c(cn4C)C[C@H]21` [Metergoline], for which the normalised cell viability reads like this: under setting [1], 0.986 ± 0.016; under setting [2], 0.97 ± 0.015; under setting [3], 0.993 ± 0.011; under setting [4], 1.04 ± 0.1; under setting [5], 0.9953 ± 0.0025; under setting [6], 0.9993 ± 0.0093.

Turning to `N#CC(C#N)=Cc1cc(O)c(O)c(O)c1` [Tyrphostin 25], the normalised cell viability worked out at 1.02 ± 0.01 under setting [1]; 1.02 ± 0.029 under setting [2]; 1.02 ± 0.015 under setting [3]; 1.02 ± 0.025 under setting [4]; 1.01 ± 0.016 under setting [5]; 1.023 ± 0.0058 under setting [6].

As to `C=CCN1CC[C@]23c4c5ccc(O)c4O[C@H]2C(=O)CC[C@@]3(O)[C@H]1C5` [Naloxone hydrochloride], the normalised cell viability reads like this: under setting [1], 0.998 ± 0.002; under setting [2], 0.972 ± 0.019; under setting [3], 0.999 ± 0.018; under setting [4], 0.9913 ± 0.0071; under setting [5], 0.988 ± 0.0046; under setting [6], 0.998 ± 0.01.
